Source: PubChem BioAssay AID504832 (National Center for Advancing Translational Sciences (NCATS), 2011)
Where “and” joins values, the source holds several entries; their conditions need not be identical. Equal entries are not always repeated. Hit rate of the full screen: of about 310,000 compounds, about 18,000 (5.8%) were called active. The shares of active, inactive and inconclusive entries below differ from those in the screen. Calls come from the whole dose curve; as a rule, active = well fitted inhibition curve with a large enough effect; inconclusive = small, poorly fitted or top-dose-only effect, or another doubt; inactive = no such curve, though single readings can be large or run the other way. A potency beside an inconclusive call is a rough fit, not a confirmed value.

assay: Primary qHTS for delayed death inhibitors of the malarial parasite plastid, 48 hour incubation; conditions: P. falciparum luciferase growth in erythrocytes; series mostly up to 28.7 µM
Procedure, shortened: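 Firefly luciferase activity from engineered P. falciparum reports growth; inhibitors lower the luminescent signal. Cultures contained 2% hematocrit erythrocytes at 0.1% final parasitemia.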
Potency is the fitted concentration of half-maximal effect; tags give direction and shape of the fitted curve.

Row | SMILES | Potency
1 | O=C(Nc1ccccc1)c1ccc(-c2ccccc2C(F)(F)F)o1 | inconclusive: 18.5 µM [inhibitor, single point]
2 | COc1ccc(N(CC(=O)N2CCN(Cc3ccccc3)CC2)S(=O)(=O)c2ccccc2)cc1 | inconclusive: 16.5 µM [inhibitor, partial curve, poor fit]
3 | CCN(CC)Cc1c(O)ccc2c(-c3ccccc3)cc(=O)oc12 | inconclusive: 10.4 µM [inhibitor, single point]
4 | CCN(CC(=O)Nc1c(F)cccc1F)C(=O)C1COc2ccccc2O1 (stereo not drawn) | inactive
5 | O=C(CSC1=NC2(CCCCCC2)N=C1c1ccccc1)Nc1ccc2c(c1)OCCO2 | inconclusive: 8.28 µM [inhibitor, partial curve]
6 | O=C(O)CC/C(=N\Nc1ccc([N+](=O)[O-])cc1S(=O)(=O)N1CCOCC1)c1cccs1 | inconclusive: 5.86 µM [inhibitor, partial curve, poor fit]
7 | Cc1cc(C)cc(OC(C)C(=O)Nc2ccccc2C(=O)NCc2cccnc2)c1 (stereo not drawn) | inconclusive: 10.4 µM [inhibitor, single point]
8 | CCOC(=O)N1CCC(Nc2cccc(SC)c2)CC1 | inconclusive: 9.28 µM [inhibitor, single point]
9 | Cc1ccc(CN2CC[C@H]3C=CCc4cccc(c43)C2)cc1 | active: 5.22 µM
10 | CN1CCC2(CC1)Nc1nc(SCc3ccc(Cl)cc3)nn1C1=C2CN(C)CC1 | active: 3.29 µM
11 | Cc1ccc(N2C(=O)C3ON(c4ccccc4)C(c4ccncc4)C3C2=O)cc1 (stereo not drawn) | inactive
12 | COc1ccc(OC)c(NC(=O)Cc2coc3ccc4ccccc4c23)c1 | inconclusive: 18.5 µM [inhibitor, single point]
13 | O=C(Nc1cc(Cl)ccc1-n1cncn1)c1cccc(S(=O)(=O)N2CCOCC2)c1 | inconclusive: 18.5 µM [inhibitor, single point]
14 | CCOc1cc(N2CCOCC2)c(OCC)cc1NC(=O)c1ccc(=O)n(Cc2ccccc2)n1 | inactive
15 | CC(C)Sc1nnc(CNC(=O)C23CC4CC(CC(C4)C2)C3)n1Cc1ccccc1 | inconclusive: 9.28 µM [inhibitor, partial curve, poor fit]
16 | COCc1ccc(CN2CCCCC2C(=O)Nc2ccc(Oc3ccccc3)nc2)o1 (stereo not drawn) | inconclusive: 10.4 µM [inhibitor, single point]
17 | COC(=O)c1cc(-c2ccc(Cl)cc2)n[nH]1 | inactive
18 | Cc1nc2ncccn2c1-c1csc(Nc2cccc(C(=O)O)c2)n1 | inactive
19 | O=C(CCc1cn2ccccc2n1)NC1CCCc2c1cnn2-c1ccccc1F (stereo not drawn) | inactive
20 | COc1ccc(CCN(CC(=O)NC(C)(C)C)C(=O)Cn2nnc(-c3ccc(C)o3)n2)cc1OC | inconclusive: 10.4 µM [inhibitor, partial curve, poor fit]
21 | CCCCCCOC(=O)C(C#N)c1nc2ccccc2nc1N1CCN(C)CC1 (stereo not drawn) | inconclusive: 18.5 µM [inhibitor, single point] and inconclusive: 14.7 µM [inhibitor, partial curve, poor fit]
22 | O=C(CN1CCN(C(=O)c2cccc(S(=O)(=O)N3CCCC3)c2)CC1)Nc1cccc(F)c1 | inconclusive: 6.57 µM [inhibitor, partial curve]

Row | SMILES | Potency
23 | CC(C)[C@@H](COc1ccccc1)N1CCN(Cc2ccccc2)CCC1=O | inconclusive: 18.5 µM [inhibitor, single point]
24 | COc1ccc(S(=O)(=O)N2CCCC(C(=O)N3CCOCC3)C2)cc1Cl (stereo not drawn) | inconclusive: 18.5 µM [inhibitor, single point]
25 | Cc1ccc(C(c2nnnn2CS(=O)(=O)c2ccc(C)cc2)N2CCN(c3ncccn3)CC2)cc1 (stereo not drawn) | active: 4.15 µM
26 | COc1ccc(C(=O)NNC(=S)NC(=O)c2ccc(Br)o2)cc1OC | inconclusive: 10.4 µM [inhibitor, single point]
27 | COc1cc(C(c2c(C(=O)O)[nH]c3ccccc23)c2c(C(=O)O)[nH]c3ccccc23)ccc1OCc1ccccc1 | inactive
28 | N#CC(C#N)=C/C=C(\Nc1ccc(Cl)cc1)c1ccc(Cl)cc1 | inconclusive: 18.5 µM [inhibitor, single point]
29 | CC(=O)NNC(=O)c1csc(Cc2c(Cl)sc3ccc(Cl)cc23)n1 | inconclusive: 8.28 µM [inhibitor, partial curve, poor fit]
30 | CCc1ccc(-c2csc(NC(=O)C3CCCO3)c2C(=O)OC(C)C)cc1 (stereo not drawn) | inconclusive: 11.7 µM [inhibitor, single point]
31 | O=C(NCCCc1ccccc1)c1cc(COc2ccc(F)cc2Cl)on1 | inactive
32 | O=C1Cc2ccccc2Sc2c(OCCN3CCCCC3)cccc21 | inconclusive: 7.38 µM [inhibitor, partial curve]
33 | Cc1ccc2c(c1)C(=O)CC1(CCCCCC1)O2 | inactive
34 | O=C(CCN1CCOCC1)NNC(=S)NC(=O)c1ccccc1 | inconclusive: 9.28 µM [inhibitor, single point]
35 | Cc1ccc(C)c(NC(=S)NC(NC(=O)OCc2ccccc2)C(Cl)(Cl)Cl)c1 (stereo not drawn) | inconclusive: 13.1 µM [inhibitor, single point]
36 | Cc1cc(N2CCN(S(=O)(=O)c3ccc(Br)cc3)CC2)n2ncnc2n1 | inconclusive: 2.94 µM [inhibitor, single point]
37 | CCOc1ccc(NC(=O)CN(C)C(=O)CCNC(=O)c2ccco2)cc1OCC | inactive
38 | O=C(NCCO)C(=O)c1c(-c2ccccc2)cc2ccccn12 | inactive
39 | Cc1ccccc1-n1c(SCC(=O)N(C)C2CCS(=O)(=O)C2)nc2ccccc2c1=O (stereo not drawn) | inconclusive: 8.28 µM [inhibitor, partial curve, poor fit]
40 | CC(C)Cn1c(SC(C)C(=O)NC2CC2)nnc1-c1ccccc1F (stereo not drawn) | inconclusive: 14.7 µM [inhibitor, partial curve, poor fit]
41 | Cc1ccccc1Cn1cc(NC(=O)CCCn2nc([N+](=O)[O-])cc2C)cn1 | inactive
42 | COc1ccc(Cl)cc1NC(=O)C(=O)NCc1ccncc1 | inactive
43 | CC(C)(C)C(=O)OC/C(N)=N/OC(=O)c1ccc(Cl)cc1 | inconclusive: 16.5 µM [inhibitor, partial curve, poor fit]
